Values marked as one replicate rest on one cluster of the flow cell; about a third of the high ones do not repeat.
These sequences were tested on ATP (assay: switch fluorescence ratio, 500 uM ATP over buffer (Cy3 cluster intensity, sum of 5 cycles each) (fold (ratio)); higher = stronger signal-on switching upon ATP binding; sequences stand for … in TCGTCGGCAGCGTCAGATGTGTATAAGAGACAGTTTTTTTTTTTTTTTTTTTTTTTTT…TC). Conditions: aptamer strand: ATP DNA aptamer (quencher-CACCTGGGGGAGTATTGCGGAGGAAGG + anchor), 100 nM annealed; ATP concentration: 500 uM; one replicate.
In short: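 The fluorescence ratio divides summed target-cycle Cy3 intensity by summed buffer-cycle Cy3 intensity for each cluster and is averaged per switch-domain sequence. Cy3-labelled switching-strand clusters on a modified Illumina MiSeq flow-cell were annealed to 100 nM quencher-labelled ATP aptamer, then imaged in selection buffer and again after 15 min with 500 uM ATP at 22 °C. Five such cycles were run, with NaOH stripping and re-annealing between them, and clusters outside 100-1000 RFU were excluded.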
Sequence AACGGTGTTG has a switch fluorescence ratio of 0.993.
In the case of AACGTACTCG, the switch fluorescence ratio is reported as 1.53.
Sequence AACGTATGAA has a switch fluorescence ratio of 1.09.
For AACGTCCGGT, the switch fluorescence ratio was 1.02.
AACGTCGTTA gave a switch fluorescence ratio of 0.979.
Work on AACGTGTGTT yielded a switch fluorescence ratio of 1.01.
AACGTTCCGC was tested, and the switch fluorescence ratio was 1.55.
Sequence AACTAAATTC has a switch fluorescence ratio of 1.01.
Sequence AACTAAGTCT has a switch fluorescence ratio of 0.948.
In the case of AACTAATTG, the switch fluorescence ratio is reported as 0.971.
In the case of AACTACAC, the switch fluorescence ratio is reported as 1.25.
AACTACACGC was tested, and the switch fluorescence ratio was 1.32.
With AACTACATTA the switch fluorescence ratio was 1.06.
Work on AACTACGGAG yielded a switch fluorescence ratio of 1.05.
For AACTAGCACA, the switch fluorescence ratio was 1.09.
AACTATCCGG gave a switch fluorescence ratio of 1.02.
Work on AACTATTCGC yielded a switch fluorescence ratio of 1.03.
AACTCAGAAA showed a switch fluorescence ratio of 2.77.
AACTCCACCG was tested, and the switch fluorescence ratio was 1.57.
For AACTCCTAAA, the switch fluorescence ratio was 1.05.
Work on AACTCTGTCG yielded a switch fluorescence ratio of 0.987.
For AACTGAATAA, the switch fluorescence ratio was 1.07.
AACTGACTGT was tested, and the switch fluorescence ratio was 1.08.
Sequence AACTGATAAG has a switch fluorescence ratio of 0.992.
Work on AACTGATGCA yielded a switch fluorescence ratio of 0.951.
With AACTGATTTA the switch fluorescence ratio was 0.993.
AACTGCAAGG showed a switch fluorescence ratio of 1.03.
AACTGCGGTT was tested, and the switch fluorescence ratio was 1.01.
AACTGCGTCC showed a switch fluorescence ratio of 1.1.
Sequence AACTGGGATC has a switch fluorescence ratio of 1.05.
With AACTGGGTCC the switch fluorescence ratio was 1.01.
With AACTGTGACA the switch fluorescence ratio was 1.09.
In the case of AACTTAGCCC, the switch fluorescence ratio is reported as 1.23.
AACTTCAGAG showed a switch fluorescence ratio of 0.94.
AACTTTATAA was tested, and the switch fluorescence ratio was 0.992.
AACTTTATTC showed a switch fluorescence ratio of 1.05.
AACTTTCTTG gave a switch fluorescence ratio of 0.954.
In the case of AACTTTTTCT, the switch fluorescence ratio is reported as 1.08.
AAGAAAAAGA showed a switch fluorescence ratio of 0.977.
In the case of AAGAAAATGA, the switch fluorescence ratio is reported as 1.09.
With AAGAAACTAT the switch fluorescence ratio was 0.979.
AAGAAAGAAG was tested, and the switch fluorescence ratio was 1.02.
For AAGAAAGAG, the switch fluorescence ratio was 1.
AAGAAAGTAG showed a switch fluorescence ratio of 1.05.
Work on AAGAAATCAA yielded a switch fluorescence ratio of 1.
AAGAACATGG gave a switch fluorescence ratio of 0.938.
AAGAAGGGTG was tested, and the switch fluorescence ratio was 0.972.
For AAGAAGTTAT, the switch fluorescence ratio was 1.
AAGAATAGGG gave a switch fluorescence ratio of 0.979.
In the case of AAGAATCAGG, the switch fluorescence ratio is reported as 1.
With AAGACCAAAT the switch fluorescence ratio was 1.03.
For AAGACGAGGG, the switch fluorescence ratio was 1.03.
Sequence AAGACGATCT has a switch fluorescence ratio of 0.99.
AAGACTAGTG gave a switch fluorescence ratio of 0.982.
Work on AAGAGAGAGT yielded a switch fluorescence ratio of 1.04.
AAGAGATTT was tested, and the switch fluorescence ratio was 1.05.
In the case of AAGAGCCTG, the switch fluorescence ratio is reported as 1.
AAGAGGACAG showed a switch fluorescence ratio of 1.06.
In the case of AAGAGGCTTA, the switch fluorescence ratio is reported as 1.02.
In the case of AAGAGGGTGT, the switch fluorescence ratio is reported as 1.04.
AAGAGGTACG showed a switch fluorescence ratio of 1.02.
For AAGAGTAGGC, the switch fluorescence ratio was 1.02.
With AAGATAACT the switch fluorescence ratio was 1.
Work on AAGATAAGGC yielded a switch fluorescence ratio of 0.99.
For AAGATAATGG, the switch fluorescence ratio was 1.02.
AAGATCGGCT gave a switch fluorescence ratio of 1.03.
In the case of AAGATGAATG, the switch fluorescence ratio is reported as 0.994.
AAGATGCGAT was tested, and the switch fluorescence ratio was 1.02.
Work on AAGATGTCAA yielded a switch fluorescence ratio of 0.995.
For AAGATTAGGC, the switch fluorescence ratio was 0.976.
With AAGCACCCGA the switch fluorescence ratio was 1.17.
AAGCAGAAAA gave a switch fluorescence ratio of 1.21.
In the case of AAGCAGCTCG, the switch fluorescence ratio is reported as 0.991.
AAGCAGTAAC gave a switch fluorescence ratio of 1.83.
For AAGCATGAAA, the switch fluorescence ratio was 0.994.
Work on AAGCCCTGG yielded a switch fluorescence ratio of 1.07.
Work on AAGCCCTGTG yielded a switch fluorescence ratio of 1.11.
Sequence AAGCCGATGT has a switch fluorescence ratio of 0.985.
Sequence AAGCCGTTAT has a switch fluorescence ratio of 1.02.
AAGCCTATAT gave a switch fluorescence ratio of 0.998.
AAGCCTCTAG was tested, and the switch fluorescence ratio was 1.01.
AAGCGAAAGT gave a switch fluorescence ratio of 1.01.
For AAGCGAGGGT, the switch fluorescence ratio was 1.03.
Work on AAGCGATGGG yielded a switch fluorescence ratio of 1.06.
For AAGCGGGGCG, the switch fluorescence ratio was 1.03.
AAGCGTGCAC gave a switch fluorescence ratio of 0.982.
AAGCTACTGT showed a switch fluorescence ratio of 1.09.
With AAGCTCATAG the switch fluorescence ratio was 1.02.
Sequence AAGCTCCACC has a switch fluorescence ratio of 1.04.
AAGCTGACAA was tested, and the switch fluorescence ratio was 1.
Sequence AAGCTGGGCC has a switch fluorescence ratio of 1.02.
AAGCTGTGGT gave a switch fluorescence ratio of 0.997.
For AAGCTTTCTG, the switch fluorescence ratio was 1.46.
For AAGGAACATA, the switch fluorescence ratio was 0.984.
In the case of AAGGAACTT, the switch fluorescence ratio is reported as 0.997.
Sequence AAGGACGTTT has a switch fluorescence ratio of 1.04.
AAGGACTGGG was tested, and the switch fluorescence ratio was 0.937.
AAGGAGAGCA was tested, and the switch fluorescence ratio was 0.96.
Sequence AAGGATCGAT has a switch fluorescence ratio of 0.938.
AAGGATGAAG gave a switch fluorescence ratio of 1.04.
For AAGGCACGTT, the switch fluorescence ratio was 1.01.
With AAGGCCGCGA the switch fluorescence ratio was 1.28.
Work on AAGGCCGTGT yielded a switch fluorescence ratio of 1.
For AAGGCGCAGG, the switch fluorescence ratio was 1.1.
With AAGGCGGCTA the switch fluorescence ratio was 1.03.
In the case of AAGGCGGGCA, the switch fluorescence ratio is reported as 1.03.
With AAGGCGTCCG the switch fluorescence ratio was 0.95.
Work on AAGGCGTTAT yielded a switch fluorescence ratio of 0.989.
With AAGGCTGAAA the switch fluorescence ratio was 1.02.
AAGGGAAAAC gave a switch fluorescence ratio of 1.06.
For AAGGGAAAAT, the switch fluorescence ratio was 1.01.
Work on AAGGGACATG yielded a switch fluorescence ratio of 1.1.
With AAGGGACTCC the switch fluorescence ratio was 0.984.
With AAGGGCCACA the switch fluorescence ratio was 1.
Sequence AAGGGCGCGA has a switch fluorescence ratio of 1.17.
With AAGGGGAGG the switch fluorescence ratio was 1.03.
With AAGGGGGCTG the switch fluorescence ratio was 0.951.
Sequence AAGGGGTATG has a switch fluorescence ratio of 1.02.
In the case of AAGGGTACTT, the switch fluorescence ratio is reported as 1.13.
AAGGGTATGA was tested, and the switch fluorescence ratio was 1.06.
Work on AAGGGTCTGT yielded a switch fluorescence ratio of 0.965.
With AAGGGTGCCT the switch fluorescence ratio was 1.04.
Work on AAGGGTTTTA yielded a switch fluorescence ratio of 0.978.
In the case of AAGGTAAGAA, the switch fluorescence ratio is reported as 0.954.
AAGGTACAGC gave a switch fluorescence ratio of 1.1.
With AAGGTACCGC the switch fluorescence ratio was 1.15.
AAGGTACCTG was tested, and the switch fluorescence ratio was 0.985.
AAGGTATGGC showed a switch fluorescence ratio of 0.979.
For AAGGTCACTG, the switch fluorescence ratio was 0.999.
AAGGTCCACT showed a switch fluorescence ratio of 0.945.
For AAGGTCCGTT, the switch fluorescence ratio was 0.929.
AAGGTCCTTT gave a switch fluorescence ratio of 0.998.
AAGGTCTACG gave a switch fluorescence ratio of 0.984.
AAGGTCTTG was tested, and the switch fluorescence ratio was 1.06.
With AAGGTGCGCA the switch fluorescence ratio was 1.1.
Sequence AAGGTGGTCC has a switch fluorescence ratio of 0.971.
AAGGTTTTA gave a switch fluorescence ratio of 0.988.
Sequence AAGTAACTGG has a switch fluorescence ratio of 1.03.
AAGTACGCAA was tested, and the switch fluorescence ratio was 3.92.
In the case of AAGTAGAGGT, the switch fluorescence ratio is reported as 1.04.
With AAGTAGGCGT the switch fluorescence ratio was 0.983.
With AAGTATCCTA the switch fluorescence ratio was 1.04.
Sequence AAGTCAACTT has a switch fluorescence ratio of 1.01.
In the case of AAGTCAGCAG, the switch fluorescence ratio is reported as 0.996.
With AAGTCCCAGA the switch fluorescence ratio was 1.01.
With AAGTCCCGAC the switch fluorescence ratio was 1.04.
For AAGTCGCCGG, the switch fluorescence ratio was 1.
AAGTCGCTCT gave a switch fluorescence ratio of 1.03.
Sequence AAGTCTGCCT has a switch fluorescence ratio of 1.
For AAGTCTGGTG, the switch fluorescence ratio was 0.931.
In the case of AAGTCTTTGT, the switch fluorescence ratio is reported as 0.964.
With AAGTGACGAC the switch fluorescence ratio was 1.1.
With AAGTGATAGT the switch fluorescence ratio was 1.
AAGTGATCAA was tested, and the switch fluorescence ratio was 0.994.
Work on AAGTGATCCA yielded a switch fluorescence ratio of 0.976.
In the case of AAGTGATGTA, the switch fluorescence ratio is reported as 0.979.
With AAGTGCACCG the switch fluorescence ratio was 1.02.
In the case of AAGTGCGGCT, the switch fluorescence ratio is reported as 0.958.
AAGTGCGGTT showed a switch fluorescence ratio of 1.04.
Sequence AAGTGCTGA has a switch fluorescence ratio of 1.05.
With AAGTGGCGGG the switch fluorescence ratio was 0.999.
Sequence AAGTGGGTTG has a switch fluorescence ratio of 0.968.
For AAGTGGTCGA, the switch fluorescence ratio was 0.973.
AAGTGTAA was tested, and the switch fluorescence ratio was 1.02.
With AAGTGTCGG the switch fluorescence ratio was 0.987.
In the case of AAGTTAATAT, the switch fluorescence ratio is reported as 1.05.
AAGTTAGGTA showed a switch fluorescence ratio of 0.988.
AAGTTATTG was tested, and the switch fluorescence ratio was 0.987.
With AAGTTCGCGG the switch fluorescence ratio was 1.01.
In the case of AAGTTCGGTT, the switch fluorescence ratio is reported as 0.985.
Work on AAGTTGAAT yielded a switch fluorescence ratio of 0.995.
For AAGTTGTGG, the switch fluorescence ratio was 1.
AAGTTTGAGC showed a switch fluorescence ratio of 0.902.
In the case of AAGTTTTAGT, the switch fluorescence ratio is reported as 1.01.
Work on AATAAAAAAG yielded a switch fluorescence ratio of 0.939.
For AATAAAAGCC, the switch fluorescence ratio was 1.05.
AATAAACGAT was tested, and the switch fluorescence ratio was 1.02.
AATAACCGTG was tested, and the switch fluorescence ratio was 1.02.
For AATAACGGGG, the switch fluorescence ratio was 1.02.
AATAACGTCG gave a switch fluorescence ratio of 0.933.
Work on AATAAGAGAT yielded a switch fluorescence ratio of 0.973.
For AATAAGCACC, the switch fluorescence ratio was 1.27.
Work on AATAAGTAGT yielded a switch fluorescence ratio of 0.983.
Work on AATAATTGTA yielded a switch fluorescence ratio of 1.07.
AATACATCTC showed a switch fluorescence ratio of 1.03.
In the case of AATACCCTGG, the switch fluorescence ratio is reported as 1.
Sequence AATACCTATC has a switch fluorescence ratio of 1.07.
Work on AATACGGCT yielded a switch fluorescence ratio of 0.991.
In the case of AATACTGGGT, the switch fluorescence ratio is reported as 1.08.
AATACTGTCT was tested, and the switch fluorescence ratio was 1.04.
AATAGATCCT showed a switch fluorescence ratio of 1.02.
AATAGCTAGC showed a switch fluorescence ratio of 0.98.
AATAGGCGCT was tested, and the switch fluorescence ratio was 1.05.
With AATAGGGGTC the switch fluorescence ratio was 1.02.
AATAGTGCGG gave a switch fluorescence ratio of 1.02.
In the case of AATAGTGGAT, the switch fluorescence ratio is reported as 0.988.
Sequence AATAGTGGCC has a switch fluorescence ratio of 0.933.
For AATATACTTG, the switch fluorescence ratio was 1.04.
For AATATAGTAA, the switch fluorescence ratio was 0.94.
AATATAGTGC gave a switch fluorescence ratio of 1.09.
AATATCACGA gave a switch fluorescence ratio of 1.1.

— the supplement of paper PMC10126150
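Further: ATP exposure 15 min at 22 °C before imaging.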
